Literature values, collected in US6812380B2, “Compositions and methods of zearalenone detoxification” (Pioneer Hi-Bred International, Inc., priority 2001, dated 2004).

Conditions: zearalenone and/or its derivatives; cited from earlier work

C[C@H]1CCCC(=O)CCC/C=C/c2cc(O)cc(O)c2C(=O)O1 [zearalenone]
genotoxicity: genotoxic
